# Test results taken from the supplement of paper PMC8728848.
# The list shows a part of the results.
# How the values were obtained:
# Experiment in all cases: glycan array binding signal (z-score within array); higher = stronger binding
# Settings in all cases: glycan notation: IUPAC condensed, linker removed
# Fuc(a1-2)Gal = target: Fuc(a1-2)Gal
# Procedure, shortened: (§1)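 Glycan array data came from 3228 arrays in the Consortium for Functional Glycomics database, and only arrays with an available protein sequence were kept. Glycan names were put into IUPAC-condensed notation, and columns mapping to the same glycan were averaged. The binding signal is a within-array Z-score, averaged across arrays of one protein sequence run at different concentrations or buffers and across linkers. A negative Z-score can be read as non-binding.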
# Fuc(a1-2)Gal(b1-3)GalNAc = target: Fuc(a1-2)Gal(b1-3)GalNAc
# Procedure, shortened: as §1
# [1] = target: Fuc(a1-2)Gal(b1-3)GalNAc(a1-3)[Fuc(a1-2)]Gal(b1-4)Glc
# Procedure, shortened: as §1
# [2] = target: Fuc(a1-2)Gal(b1-3)GalNAc(a1-3)[Fuc(a1-2)]Gal(b1-4)GlcNAc
# Procedure, shortened: as §1
# [3] = target: Fuc(a1-2)Gal(b1-3)GalNAc(b1-3)Gal
# Procedure, shortened: as §1
# [4] = target: Fuc(a1-2)Gal(b1-3)GalNAc(b1-3)Gal(a1-4)Gal(b1-4)Glc
# Procedure, shortened: as §1
# [5] = target: Fuc(a1-2)Gal(b1-3)GalNAc(b1-4)[Neu5Ac(a2-3)]Gal(b1-4)Glc
# Procedure, shortened: as §1
# Fuc(a1-2)Gal(b1-3)GlcNAc = target: Fuc(a1-2)Gal(b1-3)GlcNAc
# Procedure, shortened: as §1
# [6] = target: Fuc(a1-2)Gal(b1-3)GlcNAc(b1-2)Man(a1-3)[Fuc(a1-2)Gal(b1-3)GlcNAc(b1-2)Man(a1-6)]Man(b1-4)GlcNAc(b1-4)GlcNAc
# Procedure, shortened: as §1
# [7] = target: Fuc(a1-2)Gal(b1-3)GlcNAc(b1-2)Man(a1-3)[Fuc(a1-2)Gal(b1-3)GlcNAc(b1-2)Man(a1-6)]Man(b1-4)GlcNAc(b1-4)[Fuc(a1-6)]GlcNAc
# Procedure, shortened: as §1
# [8] = target: Fuc(a1-2)Gal(b1-3)GlcNAc(b1-3)Gal(b1-4)Glc
# Procedure, shortened: as §1
# [9] = target: Fuc(a1-2)Gal(b1-3)GlcNAc(b1-3)GalNAc
# Procedure, shortened: as §1
# [10] = target: Fuc(a1-2)Gal(b1-3)GlcNAc(b1-3)[Fuc(a1-2)Gal(b1-3)GlcNAc(b1-6)]GalNAc
# Procedure, shortened: as §1
# [11] = target: Fuc(a1-2)Gal(b1-3)GlcNAc(b1-3)[Gal(b1-4)GlcNAc(b1-6)]Gal(b1-4)Glc
# Procedure, shortened: as §1
# [12] = target: Fuc(a1-2)Gal(b1-3)GlcNAc(b1-3)[Neu5Ac(a2-6)Gal(b1-4)GlcNAc(b1-6)]Gal(b1-4)Glc
# Procedure, shortened: as §1
# [13] = target: Fuc(a1-2)Gal(b1-3)GlcNAc6S
# Procedure, shortened: as §1
# [14] = target: Fuc(a1-2)Gal(b1-3)[Fuc(a1-4)]GlcNAc
# Procedure, shortened: as §1
# [15] = target: Fuc(a1-2)Gal(b1-3)[Fuc(a1-4)]GlcNAc(b1-2)Man(a1-3)[Fuc(a1-2)Gal(b1-3)[Fuc(a1-4)]GlcNAc(b1-2)Man(a1-3)]Man(b1-4)GlcNAc(b1-4)GlcNAc
# Procedure, shortened: as §1
# [16] = target: Fuc(a1-2)Gal(b1-3)[Fuc(a1-4)]GlcNAc(b1-2)Man(a1-3)[Fuc(a1-2)Gal(b1-3)[Fuc(a1-4)]GlcNAc(b1-2)Man(a1-6)]Man(b1-4)GlcNAc(b1-4)[Fuc(a1-6)]GlcNAc(b1-4)[Fuc(a1-6)]GlcNAc
# Procedure, shortened: as §1
# [17] = target: Fuc(a1-2)Gal(b1-3)[Fuc(a1-4)]GlcNAc(b1-3)[Fuc(a1-3)[Gal(b1-4)]GlcNAc(b1-6)]Gal(b1-4)Glc
# Procedure, shortened: as §1
# [18] = target: Fuc(a1-2)Gal(b1-3)[Fuc(a1-4)]GlcNAc(b1-3)[Gal(b1-4)GlcNAc(b1-6)]Gal(b1-4)Glc
# Procedure, shortened: as §1
# [19] = target: Fuc(a1-2)Gal(b1-4)Fuc(a1-3)]GlcNAc(b1-2)Man(a1-3)[Fuc(a1-2)Gal(b1-4)[Fuc(a1-3)]GlcNAc(b1-2)Man(a1-6)]Man(b1-4)GlcNAc(b1-4)GlcNAc
# Procedure, shortened: as §1
# Fuc(a1-2)Gal(b1-4)Glc = target: Fuc(a1-2)Gal(b1-4)Glc
# Procedure, shortened: as §1
# Fuc(a1-2)Gal(b1-4)Glc6S = target: Fuc(a1-2)Gal(b1-4)Glc6S
# Procedure, shortened: as §1
# Fuc(a1-2)Gal(b1-4)GlcNAc = target: Fuc(a1-2)Gal(b1-4)GlcNAc
# Procedure, shortened: as §1
# [20] = target: Fuc(a1-2)Gal(b1-4)GlcNAc(b1-2)Man
# Procedure, shortened: as §1
# [21] = target: Fuc(a1-2)Gal(b1-4)GlcNAc(b1-2)Man(a1-3)[Fuc(a1-2)Gal(b1-4)GlcNAc(b1-2)Man(a1-6)]Man(b1-4)GlcNAc(b1-4)GlcNAc
# Procedure, shortened: as §1
# [22] = target: Fuc(a1-2)Gal(b1-4)GlcNAc(b1-2)Man(a1-3)[Fuc(a1-2)Gal(b1-4)GlcNAc(b1-2)Man(a1-6)]Man(b1-4)GlcNAc(b1-4)[Fuc(a1-6)]GlcNAc
# Procedure, shortened: as §1
# [23] = target: Fuc(a1-2)Gal(b1-4)GlcNAc(b1-2)[Fuc(a1-2)Gal(b1-4)GlcNAc(b1-4)]Man(a1-3)[Fuc(a1-2)Gal(b1-4)GlcNAc(b1-2)Man(a1-6)]Man(b1-4)GlcNAc(b1-4)GlcNAc
# Procedure, shortened: as §1
# [24] = target: Fuc(a1-2)Gal(b1-4)GlcNAc(b1-3)Gal(b1-4)GlcNAc
# Procedure, shortened: as §1
# [25] = target: Fuc(a1-2)Gal(b1-4)GlcNAc(b1-3)Gal(b1-4)GlcNAc(b1-2)Man(a1-3)[Fuc(a1-2)Gal(b1-4)GlcNAc(b1-3)Gal(b1-4)GlcNAc(b1-2)Man(a1-6)]Man(b1-4)GlcNAc(b1-4)GlcNAc
# Procedure, shortened: as §1
# [26] = target: Fuc(a1-2)Gal(b1-4)GlcNAc(b1-3)Gal(b1-4)GlcNAc(b1-3)Gal(b1-4)GlcNAc
# Procedure, shortened: as §1
# [27] = target: Fuc(a1-2)Gal(b1-4)GlcNAc(b1-3)GalNAc
# Procedure, shortened: as §1
# [28] = target: Fuc(a1-2)Gal(b1-4)GlcNAc(b1-3)[Fuc(a1-2)Gal(b1-4)GlcNAc(b1-6)]GalNAc
# Procedure, shortened: as §1
# [29] = target: Fuc(a1-2)Gal(b1-4)GlcNAc(b1-3)[Fuc(a1-3)[Gal(b1-4)]GlcNAc(b1-6)]Gal(b1-4)Glc
# Procedure, shortened: as §1
# [30] = target: Fuc(a1-2)Gal(b1-4)GlcNAc(b1-6)GalNAc
# Procedure, shortened: as §1
# [31] = target: Fuc(a1-2)Gal(b1-4)GlcNAc6S
# Procedure, shortened: as §1
binder,measurement,setting,value
"MAA (Maackia amurensis), P0DKL3 (protein) MATSNSKPTQVLLATFLTFFFLLLNNVNSSDELSFTINNFVPNEADLLFQGEASVSSTGVLQLTRVENGQPQKYSVGRALYAAPVRIWDNTTGSVASFSTSFTFVVKAPNPDITSDGLAFYLAPPDSQIPSGSVSKYLGLFNNSNSDSSNQIVAVELDTYFAHSYDPWDPNYRHIGIDVNGIESIKTVQWDWINGGVAFATITYLAPNKTLIASLVYPSNQTTFSVAASVDLKEILPEWVRVGFSAATGYPTEVETHDVLSWSFTSTLEANCDAATENNVHIARYTA",glycan array binding signal (z-score),Fuc(a1-2)Gal,-0.205
same,glycan array binding signal (z-score),Fuc(a1-2)Gal(b1-3)GalNAc,-0.239
same,glycan array binding signal (z-score),[1],-0.176
same,glycan array binding signal (z-score),[2],-0.183
same,glycan array binding signal (z-score),[3],-0.146
same,glycan array binding signal (z-score),[4],-0.21
same,glycan array binding signal (z-score),[5],-0.168
same,glycan array binding signal (z-score),Fuc(a1-2)Gal(b1-3)GlcNAc,-0.214
same,glycan array binding signal (z-score),[6],0.018
same,glycan array binding signal (z-score),[7],-0.187
same,glycan array binding signal (z-score),[8],-0.221
same,glycan array binding signal (z-score),[9],-0.248
same,glycan array binding signal (z-score),[10],-0.196
same,glycan array binding signal (z-score),[11],-0.262
same,glycan array binding signal (z-score),[12],-0.266
same,glycan array binding signal (z-score),[13],-0.301
same,glycan array binding signal (z-score),[14],-0.223
same,glycan array binding signal (z-score),[15],-0.158
same,glycan array binding signal (z-score),[16],-0.193
same,glycan array binding signal (z-score),[17],-0.239
same,glycan array binding signal (z-score),[18],-0.177
same,glycan array binding signal (z-score),[19],-0.025
same,glycan array binding signal (z-score),Fuc(a1-2)Gal(b1-4)Glc,-0.163
same,glycan array binding signal (z-score),Fuc(a1-2)Gal(b1-4)Glc6S,-0.105
same,glycan array binding signal (z-score),Fuc(a1-2)Gal(b1-4)GlcNAc,-0.188
same,glycan array binding signal (z-score),[20],-0.305
same,glycan array binding signal (z-score),[21],-0.19
same,glycan array binding signal (z-score),[22],-0.291
same,glycan array binding signal (z-score),[23],-0.059
same,glycan array binding signal (z-score),[24],-0.236
same,glycan array binding signal (z-score),[25],-0.113
same,glycan array binding signal (z-score),[26],-0.196
same,glycan array binding signal (z-score),[27],-0.193
same,glycan array binding signal (z-score),[28],-0.264
same,glycan array binding signal (z-score),[29],-0.132
same,glycan array binding signal (z-score),[30],-0.214
same,glycan array binding signal (z-score),[31],-0.225
